Among the data in publication PMC10726135 are binding signal (log2 normalized intensity) values, retold here.

Some of the results follow. At the low end of the ranking the order means little. Measured with an extract: partners may take part in the binding.

The target in the experiment is T1, HNF4alpha8 (COS-7 nuclear extract) (UniProt P41235-5).
T1 sequence: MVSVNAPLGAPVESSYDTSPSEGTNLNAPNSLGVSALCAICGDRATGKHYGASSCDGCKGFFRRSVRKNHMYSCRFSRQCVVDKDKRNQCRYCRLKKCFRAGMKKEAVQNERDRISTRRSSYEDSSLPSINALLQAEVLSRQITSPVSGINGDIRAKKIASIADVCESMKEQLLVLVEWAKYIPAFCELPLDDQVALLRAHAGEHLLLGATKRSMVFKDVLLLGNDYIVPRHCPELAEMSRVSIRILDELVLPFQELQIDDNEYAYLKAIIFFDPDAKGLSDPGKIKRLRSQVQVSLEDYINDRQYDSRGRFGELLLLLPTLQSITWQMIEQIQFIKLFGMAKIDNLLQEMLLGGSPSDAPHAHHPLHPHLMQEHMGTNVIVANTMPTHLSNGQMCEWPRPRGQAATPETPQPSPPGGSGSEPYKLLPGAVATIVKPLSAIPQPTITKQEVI
As to the kind of experiment: protein-binding microarray. As to conditions: COS-7 nuclear extract on double-stranded Agilent 4x180k PBM; binding buffer, salt, pH and temperature not given; high values mean tight binding; double strand, one strand shown; sequences stand for … in …GCCTAGGGAGATTAGAGTATCGGTCGA
Take CTCGCTCGCCCGAGCGCTGCTTCTCGTCCC: the binding signal (log2 normalized intensity) is -1.3. For ACATACAACCATCAAAGGTCACTTTACAGA, the binding signal (log2 normalized intensity) turned out to be 3.13. With AGAGGTCGATCTGATCTTAAGTTGTACCTG, the binding signal (log2 normalized intensity) came out at 3.09.

Turning to AGGAGGCACTGATAAGCGTATTTCAACCTT, the binding signal (log2 normalized intensity) was 0.651.

CCCTGTAAGTCCAAACAAAATACAAACACG: the binding signal (log2 normalized intensity) is 0.376. The figure for TGCAATGTTTCCAAACCCCTCGGGACCATG is -1.28; for GATAGCAAAATCAATAAATCACACGAAACA it is -1.24; for AAGAGGAGAAGAATTTACCCAACTCATCAG it is -1.14. The figure for AACTGTTTCTATGTGACCTTCACCCTGCTG is 4.81. For CACAGCGCAGCACACTGCAGCGGCATTCTC, the binding signal (log2 normalized intensity) was -1.35.

Regarding TAAAAAAAAAAAAAAATACTCCTATCACCG, the binding signal (log2 normalized intensity) is -1.27. Consider CCAGCCTGTGGTGGGAAACTTCCACTAACT, for which the binding signal (log2 normalized intensity) was -1.35.

With ATGGGGCATGACTTGTTATCACCTGCTGGA, the binding signal (log2 normalized intensity) is -0.0271. The figure for AGCTATGATAAAGGTTTGGGTTGGATTTGC is 0.956. With TAGAAGGCAGAGAAAGATAGGAGATAAGGG, the binding signal (log2 normalized intensity) was -1.16. On to GGGGGTAAAGTGGATTGCTGGCCTTTTATC, for which the binding signal (log2 normalized intensity) is 0.842.

As to AAAGTTCAGGTTTCAAATACTCCAGTCATT, the binding signal (log2 normalized intensity) was determined as 0.305.

With CAAGGAAAGATAAATAGTGACAAATTGTAT, the binding signal (log2 normalized intensity) was -0.0347. Take CTATTGCAGTAACGGCAGGGTTGTGCAGGA: the binding signal (log2 normalized intensity) is 0.0813. Next, GAAGAATAGATTCCATAGATAAGAGCTGAG: -1.31. In the case of GAGACAGCTCCACAGCTGGACTTTGGCTGC, the binding signal (log2 normalized intensity) was 6.17.

Turning to GGCCATGTCTCAGCCCAAGATCAAAAGGCA, the binding signal (log2 normalized intensity) is -1.23. Turning to AGACAAGCTCTGTTTGTTTTGTTACACATC, the binding signal (log2 normalized intensity) turned out to be 0.811.

TACTGGACAGCCAGCTGGTAAATAAAGGAA: the binding signal (log2 normalized intensity) was -1.22. Consider AGTCCTCTCTCGCGAGAGCCGAAGTCTCTC, for which the binding signal (log2 normalized intensity) was -1.26. Next, TATTTGCTGAGGAAGACTTCATTCAGGTAG: -0.728. On to CCAAGATGCTAAGGCAAGATCATTCCAGGA, for which the binding signal (log2 normalized intensity) is -1.3.

Regarding AGAGGTGAGACACGTGTGCCATGCCAAAGA, the binding signal (log2 normalized intensity) is -1.19.

Regarding GGTCAGAAAAAGCTGACGCCCCACCCCCTC, the binding signal (log2 normalized intensity) was 5.89. With GTATAGTGACTTCCTTCCAAAGGTCACAGT, the binding signal (log2 normalized intensity) is 5.47.

Turning to CTCAAAGTTTTGTTATCTCTGCTTGCAATT, the binding signal (log2 normalized intensity) was 0.44. The figure for GACTGGTTCTTGGTCAGCTCCTGGGAGATG is 0.413. Regarding TTCAACTGTGTGAGCTGATCACACCATATC, the binding signal (log2 normalized intensity) is -0.113. Take GTAAAAACAACTGCCACTTATTGTGTTATG: the binding signal (log2 normalized intensity) was found to be 0.577. Next, CCTCCTTCCGCGGACGTGTTCCCACAGTGC: 0.95; CAAGCAGAACCTTGGAGGCGGCGGCTCCGG: -1.28. GAGGGGGACTGGAAGGGAGAGATAAGAAAA: the binding signal (log2 normalized intensity) is -1.32. The figure for TAGAAACAAGACAGAATGATTCTCAGAAAC is -1.35; for AGCAAATCCCAATTCACTGACACAAATTAT it is -1.33; for GGGGAGCAAAGGTTAGCAAGGGCCCCCACT it is 3.27. For GACCCCCACTGCCTGCCTGCCAACTCCACG, the binding signal (log2 normalized intensity) was 3.35. For the sequence TCTGACCTTTGGCATTGTGTTACGTCTGGT, the binding signal (log2 normalized intensity) stood at 4.34.

For GTTAAAGGAGATAATGGGTGTAAGATACCT, the binding signal (log2 normalized intensity) was -1.22. Next, GTTTGAATTCTTGCCTATCCCATAGGTGAG: -1.24. For CATTACTATCTGCTGGGGGCTGGGCCCCAC, the binding signal (log2 normalized intensity) is -1.38. For GTGGCCACAAAATGAACACCTGTTCTAATC, the binding signal (log2 normalized intensity) was -1.06. For AGAGGCCAGCTAAAACTGCAGATTGACTCA, the binding signal (log2 normalized intensity) is -1.32. CTCCCCTCCTCCCTTGCTCACCCCACGGTT: the binding signal (log2 normalized intensity) amounted to 3.88.

In the case of TTCAGGTTTGCTAATATCTGATGTTAAATC, the binding signal (log2 normalized intensity) is 0.806.

Consider GAAATAGTGAGACAGACATGCGACATGAGG, for which the binding signal (log2 normalized intensity) was -1.19. As to GGAGGCTGCAGCGCCACATTCTGAGCCAGC, the binding signal (log2 normalized intensity) was -1.17.

In the case of GAAACAACACCAGCAATCACCTACCCCCAG, the binding signal (log2 normalized intensity) was 3.67. Next, TCACACGGGGATGGCAGACGGGGCTCTCAG: -0.671. In the case of AAAAATGGGCTGGGACTCATTTATGGAGGA, the binding signal (log2 normalized intensity) was -1.13. For GAGCATATGTATGTCAGAGTATGTGTGTAT, the binding signal (log2 normalized intensity) was found to be 1.92. TCAGAAGCCACCAGTGCAAATATAAAAGGC: the binding signal (log2 normalized intensity) was -1.16.

Take AGAATTCGATTGTTTAGGAGCCAATTATGC: the binding signal (log2 normalized intensity) is -0.642. Take AGCTTCCAGAATAGCCTCTGCAACTCAGAG: the binding signal (log2 normalized intensity) was -0.966. Regarding ACAGATAAGATTTGGAAAATATTGCCAATA, the binding signal (log2 normalized intensity) is -1.41.

For GAGGCAGGACCTTGGGAAAGGAGAAGCTGG, the binding signal (log2 normalized intensity) was -1.37. With TTGATATTTATCAAGATGAACTTTGACCCA, the binding signal (log2 normalized intensity) stood at 11.2. In the case of TAATTAAGACTCAGTCGGCTGTCAAATCAC, the binding signal (log2 normalized intensity) is -1.38. As to TTGTAGCTCTCAGCTCCTACATTACACTCC, the binding signal (log2 normalized intensity) is -1.37. Take AGATTCCAGGGGAGGGTAAGAGTCCAACTT: the binding signal (log2 normalized intensity) was 4.33.

For the sequence CCCGGCCAACGGTCGGAAGGGAGGTGCCAT, the binding signal (log2 normalized intensity) is -1.24. Next, CTCGGCATTCAGACAGACCCAGGGGAATAA: -0.898. For GCCACCTTGGTGAGAGATTAAACATGCTCT, the binding signal (log2 normalized intensity) is -1.14. Regarding TACAGTCAGAGGCCTGAAGGCCCCCAGGTA, the binding signal (log2 normalized intensity) came to 2.1. For GTACTGGGACTGTGCAGACAAGATATGAGG, the binding signal (log2 normalized intensity) was -1.3. The figure for TGCTGAAGATAAGACTTCCTCAGATAACCC is -0.357; for CAAGGGATCGTCCAAATACCTAGCTGTTTG it is -1.42; for ACGGCTGCTGTAACAAGTGGCTATAAACTA it is -1.22. As to AGCTGGGGTGCCTGATAATGACTCTTGAAC, the binding signal (log2 normalized intensity) stood at 2.4.
